The campaign covered roughly 310,000 compounds. About 2,200 (0.71%) showed an effect of 50% or more. Effects have a minus sign here. Some of the results follow.
molecular target: human ether-à-go-go-related gene (hERG) potassium channel (human, UniProt Q12809); experiment: primary screen, population patch clamp on CHO cells stably expressing hERG
Sequence (Q12809 whole entry, looked up): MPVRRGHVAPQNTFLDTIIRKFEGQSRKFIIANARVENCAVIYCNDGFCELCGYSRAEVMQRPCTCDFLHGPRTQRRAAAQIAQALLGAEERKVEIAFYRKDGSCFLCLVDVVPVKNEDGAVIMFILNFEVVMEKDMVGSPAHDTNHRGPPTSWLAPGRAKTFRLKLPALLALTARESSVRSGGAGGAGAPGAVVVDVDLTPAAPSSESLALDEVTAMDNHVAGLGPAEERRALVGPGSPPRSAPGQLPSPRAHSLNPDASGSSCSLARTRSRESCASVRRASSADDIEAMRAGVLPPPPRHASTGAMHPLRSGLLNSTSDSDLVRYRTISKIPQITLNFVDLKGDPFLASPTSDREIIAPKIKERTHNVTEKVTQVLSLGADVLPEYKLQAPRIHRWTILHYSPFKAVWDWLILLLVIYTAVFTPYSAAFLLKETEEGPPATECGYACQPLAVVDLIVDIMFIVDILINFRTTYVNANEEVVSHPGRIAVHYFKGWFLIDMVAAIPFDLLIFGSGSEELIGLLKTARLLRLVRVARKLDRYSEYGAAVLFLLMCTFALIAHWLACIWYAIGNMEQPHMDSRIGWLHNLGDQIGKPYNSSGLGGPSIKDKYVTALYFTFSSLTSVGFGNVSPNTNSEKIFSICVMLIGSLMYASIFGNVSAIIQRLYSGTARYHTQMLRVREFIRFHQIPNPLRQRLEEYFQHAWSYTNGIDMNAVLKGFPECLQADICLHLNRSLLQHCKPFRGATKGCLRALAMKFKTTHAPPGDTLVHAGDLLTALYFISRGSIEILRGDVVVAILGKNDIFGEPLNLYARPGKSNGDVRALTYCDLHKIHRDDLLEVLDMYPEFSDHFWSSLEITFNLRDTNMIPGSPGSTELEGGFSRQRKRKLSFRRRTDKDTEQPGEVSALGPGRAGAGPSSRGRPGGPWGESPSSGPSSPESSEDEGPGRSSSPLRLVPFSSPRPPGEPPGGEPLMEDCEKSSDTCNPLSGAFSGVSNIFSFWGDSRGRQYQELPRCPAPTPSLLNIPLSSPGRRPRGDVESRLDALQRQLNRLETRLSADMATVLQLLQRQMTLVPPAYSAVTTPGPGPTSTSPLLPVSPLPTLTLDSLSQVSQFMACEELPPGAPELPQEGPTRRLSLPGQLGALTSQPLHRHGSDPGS

Compound | hERG current change (%, negative = inhibition) at 1uM [%]
Clc1ccc(CON/C=N/c2ncnc3sccc23)cc1 | 19.5
COc1ccc(-c2nnc(SCC(=O)N3CCOCC3)o2)cc1 | 2.99
O=S(=O)(c1ccc(Cl)cc1)N1CCSC1c1ccco1 (stereo not drawn) | 2.53
O=c1cc(-c2ccc(O)cc2)oc2ccc3ccccc3c12 | 14
CCOc1ccc(OCC(=O)OCC(=O)NCC2CCCO2)cc1 (stereo not drawn) | 10.4
COCCN1C(=O)N[C@H](c2cccc(C(F)(F)F)c2)C(C(=O)OC)=C1C | 5.44
Cc1ccc(S(=O)(=O)CCC(=O)Nc2cc(Cl)ccc2-n2cncn2)cc1 | 0.198
Cc1ccc(S(=O)(=O)NC2OC(=O)C(Cl)=C2Cl)cc1 (stereo not drawn) | 5.69
CCOC(=O)c1ccc(N=C(CC)c2c(O)n(C)c(=O)n(C)c2=O)cc1 | 0.473
CCCC(=O)NCCc1cc2ccc(C)c(C)c2[nH]c1=O | 12.1
Cc1cc2ncn(C(=O)N3CCCC3)c2cc1C | 18.5
CCCCC(C(=O)NC(C)(C)C)N(Cc1ccco1)C(=O)c1snc(C(N)=O)c1N (stereo not drawn) | 6.86
CC(C)(C)C1CCC(=NNc2ncc(C(F)(F)F)cc2Cl)CC1 (stereo not drawn) | 2.6
CN(C)/C=N/S(=O)(=O)c1ccc(Cl)cc1 | 7.7
O=C(CCSc1ccccc1)N1CCOCC1 | 11.8
CCOC(=O)c1ccc(NC(=O)CC2SC(=NC)N(C)C2=O)cc1 (stereo not drawn) | 4.96
Cc1ccccc1-c1nnc(SCC(=O)N2CCCC2)o1 | 12.9
CCN1CCN(c2ccc(S(=O)(=O)N3CCOCC3)cc2NC(=O)c2ccc(C)cc2C)CC1 | 5.62
Cc1ccccc1N(C(=O)CCCC(=O)Nc1ccccn1)C(C(=O)NC1CCCC1)c1ccc(O)cc1 (stereo not drawn) | 9.05
CCN(CC)CC(=O)c1c[nH]c2ccc(C)cc12 | -5.56
CCOc1ccccc1-n1c(SCC(=O)NCc2ccco2)nnc1-c1ccncc1 | -8.04
C=CCn1c(CCC(=O)O)ccc1-c1ccccc1 | -3.82
O=C(NCCC1=CCCCC1)C1CCCN(S(=O)(=O)c2cnc[nH]2)C1 (stereo not drawn) | 10.1

Compound | hERG current change (%, negative = inhibition) at 1uM [%]
Cn1nc(C(F)(F)F)c(C#N)c1N1CCN(c2ccccc2F)CC1 | 8.97
CN1CCCC2(CCCN(Cc3nc(Cc4cccc(C(F)(F)F)c4)no3)C2)C1 (stereo not drawn) | 2.71
COc1cc(/C=C/C(=O)O)ccc1OCc1ccccc1C#N | 8.09
COc1cc2[nH]c(=O)n(CCC(=O)N3CCC(N4CCCCC4)CC3)c(=O)c2cc1OC | 22.6
COc1ccc(C(=O)NC(=S)NC2CCCCC2)cc1 | 12.3
CCCC1(CCC)NC(=O)N(CC(=O)Nc2cccc(OC)c2)C1=O | 9.94
CN(C)CCCN1C(=O)c2cccc3cccc(c23)C1=O | 0.723
Cc1ccc(-n2[nH]c(C)c(/C=N/c3cccc(C)n3)c2=O)cc1 | 9.82
O=C(CSc1nnc(-c2cccnc2)n1Cc1ccco1)Nc1cccc(O)c1 | -0.491
COc1ccccc1OCCNC(=O)c1ccc(S(=O)(=O)N(C)C)cc1 | 13.4
O=c1oc(Nc2cccc(Cl)c2)nc2ccccc12 | 7.76
Cc1cc(C)n2nc(C(=O)N/N=C/C=C/c3ccccc3)nc2n1 | -1.91
C=CCCCCc1nc2ccccc2c(=O)n1N | 6.45
Cc1cccc(C)c1OCCn1nc(C(=O)O)c2ccccc2c1=O | 13.1
CNc1nc2c(c(=O)n(C)c(=O)n2C)n1Cc1ccccc1 | 3.64
Cc1ccc(CCNC(=O)CS(=O)Cc2nc(-c3ccccc3F)oc2C)cc1 (stereo not drawn) | 7.76
CC(O/N=C/c1ccc(OC(F)F)cc1)C(=O)Nc1cccc(S(=O)(=O)N2CCOCC2)c1 (stereo not drawn) | -17.4
Cc1ccc(NC(=O)N/C=C/c2ccco2)c(C)c1 | -5.2
CC1CCCCN1C(=O)COC(=O)c1cc([N+](=O)[O-])ccc1N1CCOCC1 (stereo not drawn) | -10.6
COc1ccc(-n2c(C)c(C)c3c(NCCCO)ncnc32)cc1 | 11.6
Cc1cccc(C=Nc2ccccc2C(N)=O)c1 | 15.2
Cc1c(C(=O)Nc2ccc(Cl)cc2)c2ccccn2c1C(=O)c1ccccc1 | 16.8
Brc1ccc(CSc2nccn2-c2ccccc2)cc1 | 5.22

Compound | hERG current change (%, negative = inhibition) at 1uM [%]
Cc1nn2c(NC(C)C)c3c(nc2c1-c1ccccc1)CCC3 | 12.9
COc1cccc(C(=O)N/N=c2\sc3ccccc3n2C)c1 | 4.9
COC(=O)c1cnn(-c2ccccc2)c1/C=N/NC(=S)Nc1ccccc1 | 9.35
Cc1cc(C(=O)OCC(=O)NCc2ccccc2Cl)c(C)o1 | 14.7
COc1ccccc1/C=N/Nc1cc(C)nc(N2CCOCC2)n1 | 14.8
CNC(=O)CS(=O)(=O)CC(=O)Nc1cc(OC(C)C)c(Cl)cc1Cl | 16.5
COc1c(C)cc(C(=O)C2CCCN(C(=O)CCc3scnc3C)C2)cc1C (stereo not drawn) | 5.5
O=C(NCc1ccco1)/C(=C\c1ccco1)NC(=O)c1ccccc1Cl | -3.6
NC(=O)CCn1nc(-c2ccc(Cl)cc2)c2ccccc2c1=O | -3.42
Cc1ccc(-c2nn3c(C)nnc3s2)cc1NC(=O)c1cccs1 | 1.48
COc1ccc(C)cc1S(=O)(=O)N1CCN(S(=O)(=O)c2cc(C)ccc2OC)C(C)C1 (stereo not drawn) | 14
COc1ccc(Cc2nnc(NC(=O)CS(=O)(=O)c3ccccc3)s2)cc1OC | 16.4
CCCN1CCC(=NNC(=O)c2ccc(Br)o2)CC1 | 3.44
COc1ccc(CNC(=O)C[C@H]2C(=O)N(C3CCCCC3)C[C@@H]2Cc2ccccc2)cc1 | -2.93
COc1ccc(S(=O)(=O)n2nc(-c3cc(OC)c(OC)c(OC)c3)cc2N)cc1OC | 14.1
CSCCC(NC(=O)COc1ccccc1)C(=O)OCCOc1ccc(C)cc1 (stereo not drawn) | 4.56
CC(OC(=O)CCN1C(=O)C2CC=CCC2C1=O)C(=O)Nc1cccc(C#N)c1 (stereo not drawn) | -1.34
CC1(C)CC(=O)c2ccc(OCc3ccc([N+](=O)[O-])cc3)cc2O1 | -8.5
COC(=O)c1ccc(COc2ccccc2/C=C/C(=O)c2ccc(OCC(=O)O)cc2)cc1 | 4.94
Cc1ccc(N(CC(=O)NCc2ccccn2)S(=O)(=O)c2ccccc2)cc1C | 6.32
Cc1noc(C)c1COC(=O)/C=C/c1ccc(Cl)cc1 | 15.2
CN(C)CCCNC1=CC(=O)OC12CCCCC2 | 2.34
CC1CCCC(C)N1C(=O)CN1C(=O)c2ccccc2S1(=O)=O (stereo not drawn) | 5.94

Compound | hERG current change (%, negative = inhibition) at 1uM [%]
O=C(Nc1ccc(NC(=O)c2cccs2)cn1)c1ccccc1 | 12.8
CC1CN(S(=O)(=O)c2cccc(-c3cn4ccccc4n3)c2)CC(C)O1 (stereo not drawn) | 5.51
Nc1nc(-c2ccc(F)cc2)cc(C(F)(F)F)n1 | 17.6
O=C(COC(=O)/C=C/c1ccccc1[N+](=O)[O-])NC1CC1 | 6.43
CNC(=S)Nc1cccc(Cl)c1C | 6.78
Cc1cc2oc(=O)cc(CN(C)Cc3cccc(F)c3)c2cc1Cl | 11.7
O=C(CCN1CCN(c2ccccc2)CC1)Nc1ccc2c(c1)OCO2 | -1.29
O=C(Nc1ccccc1)c1n[nH]c(Cn2cncn2)n1 | -0.43
COc1cc(NC(=O)CSc2nccc(C)n2)c(C(=O)O)cc1OC | -7.07
CCOC(=O)C1=C(C)N(CC)C(=S)NC1c1ccc(Cl)cc1 (stereo not drawn) | 4.93
O=C1/C(=C/C=C/c2ccco2)SC(=S)N1c1ccc(O)cc1 | -9.7
Cc1cccc(CS(=O)(=O)Cc2ccc(C(=O)NCCN3CCCCC3C)o2)c1 (stereo not drawn) | -4.93
O=C(CCN1C(=O)/C(=C/c2ccc(F)cc2)SC1=S)NC1CCS(=O)(=O)C1 (stereo not drawn) | -5.48
Cc1[nH]c2ccccc2c1CCN(Cc1cccnc1)C(=S)Nc1ccc(F)cc1 | 0.376
CCOCCCN1C(=O)C(=O)N(CC(=O)N2c3ccccc3NC(=O)CC2C)C1=O (stereo not drawn) | 18.3
Cc1ccc2c(Cl)cc(Cl)c(OCC(=O)Nc3ccc(C)c(S(=O)(=O)N(C)C)c3)c2n1 | -7.42
NS(=O)(=O)c1cccc(NC(=O)CSc2nc3ccc(Cl)cc3[nH]2)c1 | 16.1
Cc1scc(C(=O)NNC(=S)NCC2CCCO2)c1C (stereo not drawn) | 1.69
COc1ccc(C(=O)OCc2nnc(-c3ccccc3)o2)cc1S(=O)(=O)N1CCOCC1 | 4.07
CCN(C(=O)COC(=O)c1cc(-c2ccc(C)o2)nc2ccccc12)C1CCS(=O)(=O)C1 (stereo not drawn) | -31
CCOc1ccc(N(CC(=O)NCCc2ccc(C)cc2)S(=O)(=O)c2c(C)noc2C)cc1 | 12.8
